# Laboratory results as given in US20120316107A1 (CASE WESTERN RESERVE UNIVERSITY, published 2012).
# B1: corresponding two-chain analogue (His^A8, Asp^B10, Asp^B28, Pro^B29) (ligand)
# chain 1: not shown
# chain 2: FVNQHLCGSDLVEALYLVCGERGFFYTDPT
# notes: Two-chain analogue lacking the linker; also called A8-His, B10-Asp, B28-Asp, B29-Pro ins; two-chain control analog
# B2: LANTUS (insulin analogue with two arginine residues added to the carboxy-terminal end of the B-chain) (ligand)
# chain 1: not shown
# chain 2: not shown
# Columns and labels:
# [1] = molecular target: T1, A isoform specific human insulin receptor (human); experiment: competitive displacement of labelled ligand, receptor captured on anti-FLAG IgG plate, two-site sequential model
# T1 construct: the construct is not described; also called HIRA; human insulin receptor isoform A
# [2] = molecular target: T2, Insulin-like Growth Factor receptor; experiment: as above
# T2 construct: Captured on antibody-coated microtiter plates; the construct is not described; also called IGFR; IGF Type I receptor
# [3] = molecular target: B isoform specific human insulin receptor (human); experiment: as above
# [4] = molecular target: T2, Insulin-like Growth Factor receptor; experiment: competitive displacement of 125I-IGF-1 from IGFR
# [5] = molecular target: T2, Insulin-like Growth Factor receptor; experiment: competitive displacement of 125I-IGF-1 from IGFR; remark: listed apart in the source
binder,measurement,setting,value
B1,Kd,[1],0.008 nM
same,Relative Affinity (to human insulin),[1],4.25
same,Kd,[2],2.7 nM
same,Relative Affinity (to human insulin),[2],3.54
same,Kd,[3],0.01 nM
same,Relative Affinity (to human insulin),[3],4.7
B2,affinity relative to unmodified human insulin,[4],2 to 3 times
same,Kd,[5],3.14 nM
same,Relative Affinity (to IGF-1),[5],0.015
